# Assay results from the supplement of paper PMC3334620.
# The full ranking holds about 33,000 sequences; the median of “E-score (-0.5 to 0.5)” is about -0.017, and the highest 2% start at about 0.3. This is one part of the list.
# Molecular target: T1, Sut1 (UniProt P53032)
# T1 sequence: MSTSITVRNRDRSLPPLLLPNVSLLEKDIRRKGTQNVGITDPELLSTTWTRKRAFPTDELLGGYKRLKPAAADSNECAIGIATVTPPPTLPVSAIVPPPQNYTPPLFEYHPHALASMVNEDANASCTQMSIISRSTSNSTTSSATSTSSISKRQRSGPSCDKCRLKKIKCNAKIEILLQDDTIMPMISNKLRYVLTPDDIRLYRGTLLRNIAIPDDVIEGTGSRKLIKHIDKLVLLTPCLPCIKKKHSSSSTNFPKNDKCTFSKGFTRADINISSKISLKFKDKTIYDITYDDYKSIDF
# Experiment: PBM E-score (8-mer binding enrichment) (E-score (-0.5 to 0.5)); higher = stronger / more preferred TF binding; most listed sequences are background and not binding sites
# Conditions: protein concentration: 200 nM; construct: GST-full length
# Method in brief: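 Universal all-10-mer Agilent arrays, fresh or stripped once, were converted to double-stranded form by primer extension. GST-tagged yeast transcription factors from PURExpress in vitro transcription/translation, full-length or DNA-binding domain only, were applied at about 100-200 nM and detected with fluorescent anti-GST. After masliner normalisation, the Universal PBM Analysis Suite scored each ungapped eight-base word together with its reverse complement by E-score.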
row,Sequence,PBM E-score
1,CTTATAGC,0.0162
2,AGGTACCC,-0.281
3,GCAGTCGC,-0.12
4,GGCCGTGA,-0.0209
5,ATAGGGGA,-0.179
6,AGTATGAA,0.197
7,AGTTTGAG,0.164
8,ACTAAGCT,0.0925
9,CACCACCG,-0.128
10,AGACTGCC,-0.0781
11,AGCCAGTC,-0.039
12,CCGTGGGC,-0.0462
13,AGAAGCGG,-0.0604
14,ACTCGGAC,0.411
15,CTACCAGC,-0.212
16,ATGACGAA,0.0842
17,ACTACAGG,-0.0295
18,CAGAGGGC,-0.133
19,CCCAGCGA,-0.228
20,ACACAGAT,0.00624
21,GGCCAACA,0.0303
22,CAAGACAG,-0.0887
23,AGACGGTG,-0.0879
24,CAGCAATG,-0.204
25,CTACCTTC,0.0336

row,Sequence,PBM E-score
1,ACGAGTTC,-0.011
2,CAAAGACG,0.0234
3,CATGATTA,0.229
4,AACGCCAC,-0.141
5,AAAGCAGC,0.0842
6,CTCATCGA,-0.105
7,ACTACCCG,-0.0334
8,ATGCCGAC,0.0527
9,GCCGCCGC,-0.192
10,CTACTAAC,0.0315
11,ACCTCTCA,-0.0959
12,ATGGGGAC,-0.00918
13,GAGACCTA,-0.0389
14,GCCGTTCA,-0.0518
15,CCATAGAG,-0.271
16,ACCACAAT,-0.0883
17,GAACGCGC,0.117
18,AGAGTGGA,-0.0219
19,GCGACGAC,-0.174
20,CACCGATC,0.00747
21,CAATGCCC,-0.0972
22,ACTCACAA,0.0548
23,AGGTGAAA,0.0598
24,GCGGATCC,-0.195
25,CCACAAGG,-0.201

row,Sequence,PBM E-score
1,AATTCATG,0.173
2,CCACTAGC,-0.274
3,GCCCGTAA,-0.0212
4,AGATCTAA,-0.0882
5,AGAGTGCG,-0.00074
6,AAGGGTAT,0.0504
7,GAAGTTGA,0.0192
8,CGACCGAA,-0.0737
9,CAGAGAAG,-0.0543
10,GGAATAGA,0.226
11,CCATAATC,0.171
12,AGGCTGAC,-0.245
13,AAGCTAGC,-0.0715
14,ATGCCGTG,-0.0935
15,ATGAACAG,0.0319
16,ACTGACAG,0.0545
17,CAGGCGTC,-0.228
18,ATGAATAG,0.218
19,CTCCTCCA,-0.147
20,AGAGGAAC,0.0422
21,CCCTTAGG,-0.185
22,GTGAAAAA,0.164
23,AGCGTTAG,-0.151
24,ACGAGAGT,-0.0593
25,CAATCGAC,-0.0145

row,Sequence,PBM E-score
1,AGGTTTCC,-0.0706
2,AGCTTAGC,-0.193
3,AAAGCTGA,0.0347
4,GTTATTTA,0.257
5,ATATACGC,-0.0552
6,CGAAGTCC,0.378
7,TGCCCGCA,-0.014
8,GCCGCTGA,0.168
9,AATGCTGA,-0.118
10,GTATAAGA,0.103
11,GACCCTCA,-0.194
12,CCCACCTC,-0.27
13,GAGACAGC,-0.0584
14,AGCTTACG,0.107
15,GCAGATAA,0.0401
16,AATTATGA,0.273
17,CCAAGTCG,-0.124
18,CGCCTAAG,-0.2
19,ATCGTGCG,0.108
20,CGCCACTA,-0.0262
21,CGGAGACG,0.204
22,CGAACTGA,-0.0336
23,GAACTCCA,0.15
24,TCCACAGA,-0.0655
25,AGACACCA,-0.0822

row,Sequence,PBM E-score
1,AGAGTACA,0.0303
2,CCTGTTGA,-0.0514
3,ACCCCGCA,-0.00538
4,ATTACGGG,-0.0151
5,AGTTGTAT,0.141
6,GAATATGC,0.0981
7,GCAAGCCA,-0.285
8,TAAGATCA,0.0673
9,GATACGGA,0.364
10,CTACGGAC,0.169
11,ATTGGCAC,-0.147
12,GAGCGTTA,0.00231
13,AGATCGCT,-0.0499
14,ATTCAAAT,0.228
15,CTCGCTAA,-0.151
16,AAAAACAG,0.0942
17,AGGCAAAT,-0.014
18,GACTTGCA,0.109
19,AGCAATAA,0.0469
20,AACGGAAC,0.27
21,TCGACCCA,0.101
22,ATGCATGC,0.0631
23,AGGCGAGG,-0.289
24,ACAAACTG,-0.106
25,ATGTTATC,0.192

row,Sequence,PBM E-score
1,CGGGAAGA,0.138
2,GCCAGACA,0.102
3,AGTGCTGG,-0.0738
4,CTACTGAC,-0.21
5,ATACCGGG,0.0371
6,GGTGTCAC,-0.101
7,AGAACTAT,0.225
8,TGTATCAA,0.134
9,ACCCGAGC,0.0954
10,ATTCTCTG,-0.16
11,CGCCTCCG,0.0957
12,AGTTATCA,0.218
13,GAGCTATA,-0.106
14,CGTGGAGA,-0.184
15,ATGAGCGG,-0.211
16,GGCTTAAC,0.153
17,ACGATTCG,0.0762
18,GAGGCAAC,-0.175
19,GTTGGTAA,0.201
20,ACGTCCAA,-0.0482
21,CGCTGCTA,-0.0657
22,TCCACCGA,-0.03
23,AAGGGATG,-0.0899
24,GCTTATAC,-0.0717
25,TCTGGAAA,-0.00485

row,Sequence,PBM E-score
1,AGAGAGTA,-0.0447
2,CCCAGGTA,-0.221
3,CAATGGGC,-0.172
4,CCCCTCGA,-0.146
5,CGCGATAG,0.0227
6,ATCGTACG,0.0424
7,AACAGCCC,-0.0864
8,GAGAACTC,0.0403
9,AAACGCAC,-0.0256
10,AGTGCCTC,-0.245
11,AATTAATC,0.257
12,GTTGCAAA,0.189
13,AATAGCCA,0.0202
14,CTCCGCGC,0.327
15,AGGGTCTC,-0.194
16,CTGCATGC,-0.194
17,GACACTAA,-0.0944
18,AAGATCAA,0.0587
19,CCGACTAA,0.178
20,ATCTATGC,-0.00446
21,TCTCGTCA,-0.0155
22,GATCTCAC,-0.0534
